Source: a collection of fitness landscapes (doi:10.1016/j.celrep.2020.107928)
The full ranking holds about 81,000 sequences; the median of “one-hybrid fitness for binding NBS DNA” is about -0.1, and the highest 2% start at about 0.36. The list shows a part of the results.

B1: Caulobacter ParB omega fusion; a variant is named by its letters at X, in order, B8GW30 (parent)
chain: MESVVVGEPGMSEGRRGLGRGLSALLGEVDAAPAQAPGEQLGGSREAPIEILQRNPDQPRRTFREEDLEDLSNSIREKGVLQPILVRPSPDTAGEYQIVAGERAWRAAQRAGLKTVPIMVRELDDLAVLEIGIIENVQRADLNVLEEALSYKVLMEKFERTQENIAQTIGKSXSHVANXMRLLXLPDEVQSYLVSGELTAXHARAIAAAADPVALAKQIIEGGLSVRETEALARKAPNLSAGKSKGGRPPRVKDTDTQALESDLSSVLGLDVSIDHRGSTGTLTITYATLEQLDDLCNRLTRGI

Variants of: B1
Experiment: one-hybrid fitness for binding NBS DNA (the Noc-binding site; scaled: cognate 1, non-cognate 0); higher = stronger binding
Details: with NBS DNA site
In short: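 Caulobacter ParB libraries with four specificity codons randomised were screened by bacterial one-hybrid selection in the E. coli USO strain, using a HIS3 reporter whose site lies 19 bp from the promoter. Selection ran for 48 hours at 37°C on M9 lacking histidine, with 0.1 mM IPTG and 5 mM 3-AT. Plasmids were Illumina-sequenced before and after selection, three replicate libraries were pooled, and variants with under 10 reads were dropped. Fitness is the log change in each variant's read ratio to wild type, rescaled against the cognate and non-cognate sites.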

Variant	one-hybrid fitness for binding NBS DNA
WHRH	≤ 0.2
YGPC	≤ 0.2
TSLH	≤ 0.2
GANG	≤ 0.2
LETS	≤ 0.2
RQIS	≤ 0.2
LGAV	≤ 0.2
NIFG	≤ 0.2
PQDL	≤ 0.2
PQFA	≤ 0.2
ETNS	≤ 0.2
WQSF	≤ 0.2
IRTV	≤ 0.2
VKPH	≤ 0.2
EDPN	≤ 0.2
KRAN	≤ 0.2
RCCE	≤ 0.2
MHTW	≤ 0.2
REKT	≤ 0.2
GTYV	≤ 0.2
RLKW	≤ 0.2
GNGR	≤ 0.2
QYHR	0.541
LMPR	≤ 0.2
MRCI	≤ 0.2

Variant	one-hybrid fitness for binding NBS DNA
KFSG	≤ 0.2
SSHW	≤ 0.2
LHTW	≤ 0.2
EKRT	≤ 0.2
RGMY	≤ 0.2
AEIL	≤ 0.2
AFLT	≤ 0.2
EVHV	≤ 0.2
KNES	≤ 0.2
GYWM	≤ 0.2
HKYS	≤ 0.2
WPEH	≤ 0.2
SNSA	≤ 0.2
TFHS	≤ 0.2
VLWR	≤ 0.2
AVDD	≤ 0.2
PGRY	≤ 0.2
RRVG	0.298
SHTV	≤ 0.2
QHTY	≤ 0.2
KSSK	≤ 0.2
GARY	≤ 0.2
RLKG	≤ 0.2
TWDT	≤ 0.2
TNMT	≤ 0.2

Variant	one-hybrid fitness for binding NBS DNA
RQVW	≤ 0.2
TQTI	≤ 0.2
NSWL	≤ 0.2
RVIS	0.206
ICHR	≤ 0.2
YPKC	≤ 0.2
QDYR	≤ 0.2
MGHA	≤ 0.2
NQGT	≤ 0.2
QILN	≤ 0.2
SQHR	≤ 0.2
CEPM	≤ 0.2
RHCT	0.281
VRNN	≤ 0.2
LYTR	≤ 0.2
LDTA	≤ 0.2
NDRS	≤ 0.2
AHFV	≤ 0.2
PTNY	≤ 0.2
GEWK	≤ 0.2
QHVQ	0.283
PGAG	≤ 0.2
YAWS	≤ 0.2
GWGC	≤ 0.2
PYWV	≤ 0.2

Variant	one-hybrid fitness for binding NBS DNA
PRQN	≤ 0.2
APSN	≤ 0.2
TSWD	≤ 0.2
WMTG	≤ 0.2
MMNS	≤ 0.2
NIML	≤ 0.2
AHGA	≤ 0.2
LMAC	≤ 0.2
DVIL	≤ 0.2
QQYL	≤ 0.2
INHH	≤ 0.2
CGWS	≤ 0.2
NEVC	≤ 0.2
TEGM	≤ 0.2
RKRS	0.666
RMRW	≤ 0.2
PFKI	≤ 0.2
QHMG	≤ 0.2
SQCW	≤ 0.2
AQVG	≤ 0.2
RYAE	≤ 0.2
VLNP	≤ 0.2
HQVT	≤ 0.2
APAH	≤ 0.2
RQGQ	≤ 0.2

Variant	one-hybrid fitness for binding NBS DNA
WGDA	≤ 0.2
VNNL	≤ 0.2
RHTD	≤ 0.2
PVYM	≤ 0.2
RLER	≤ 0.2
MATC	≤ 0.2
DVDV	≤ 0.2
HLSV	≤ 0.2
PLSM	≤ 0.2
QVPN	≤ 0.2
SAGL	≤ 0.2
TSRS	≤ 0.2
LVLI	≤ 0.2
TDWS	≤ 0.2
QVTY	≤ 0.2
FHYR	≤ 0.2
NSSC	≤ 0.2
FLNS	≤ 0.2
HMSF	≤ 0.2
TGVM	≤ 0.2
TLCS	≤ 0.2
WYCG	≤ 0.2
KVCG	≤ 0.2
RYKT	0.604
SNIF	≤ 0.2

Variant	one-hybrid fitness for binding NBS DNA
ATIR	≤ 0.2
GTLF	≤ 0.2
RGFW	≤ 0.2
QVAK	≤ 0.2
CLLY	≤ 0.2
RFLF	≤ 0.2
TQFL	≤ 0.2
KSAA	≤ 0.2
YERA	≤ 0.2
HFRG	≤ 0.2
SAHL	≤ 0.2
HYWL	≤ 0.2
YIHT	≤ 0.2
GTTI	≤ 0.2
QKKH	0.619
YLLI	≤ 0.2
VNVD	≤ 0.2
PCCF	≤ 0.2
IMYV	≤ 0.2
HGPK	≤ 0.2
PSNV	≤ 0.2
QAAV	≤ 0.2
QEQC	≤ 0.2
WSQD	≤ 0.2
QRMQ	0.385

Variant	one-hybrid fitness for binding NBS DNA
VNNH	≤ 0.2
EHMC	≤ 0.2
EFHT	≤ 0.2
AFAC	≤ 0.2
SPMM	≤ 0.2
CGYT	≤ 0.2
GAAS	≤ 0.2
NMPR	≤ 0.2
RPGI	≤ 0.2
STAC	≤ 0.2
NHTN	≤ 0.2
PGVN	≤ 0.2
CVLH	≤ 0.2
LTIM	≤ 0.2
YDDL	≤ 0.2
LCKM	≤ 0.2
FGTK	≤ 0.2
TGSC	≤ 0.2
DNEY	≤ 0.2
SAHG	≤ 0.2
VILN	≤ 0.2
WQKY	≤ 0.2
FIKK	≤ 0.2
VHGS	≤ 0.2
PARQ	≤ 0.2

Variant	one-hybrid fitness for binding NBS DNA
ALWT	≤ 0.2
RMST	0.483
HLRL	≤ 0.2
GWHT	≤ 0.2
KRQG	≤ 0.2
RAAI	≤ 0.2
RFSC	≤ 0.2
SQNW	≤ 0.2
QQKN	0.464
FRSF	≤ 0.2
YTAS	≤ 0.2
ENSY	≤ 0.2
LLMP	≤ 0.2
DPPD	≤ 0.2
INRF	≤ 0.2
YDQL	≤ 0.2
QAGD	≤ 0.2
ALVT	≤ 0.2
MGPF	≤ 0.2
PIST	≤ 0.2
